# Measurements from PubChem BioAssay (NCATS).
# The shares of active, inactive and inconclusive entries below differ from those in the screen. A potency beside an inconclusive call is a rough fit, not a confirmed value. Calls of active or inactive are those of the source. Calls follow the shape of the dose curve; as a rule, active = well fitted inhibition curve with a large enough effect; inconclusive = small, poorly fitted or top-dose-only effect; inactive = no such curve, though single readings can be large or run the other way.
# Test: qHTS assay to identify inhibitors of the type 1 interferon - major histocompatibility complex class I in skeletal muscle: Counter screen cell viability and HiBit confirmation (AID 1347412); also: nearly all actives have a fitted effect of over 60% in size
# Details: iHSKM muscle cells + IFN-b, HiBiT or CellTiter-Glo, 24 h; Viability
# In short: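 Myoblasts (C25cl48, HLA-B HiBiT) seeded in medium without dexamethasone, IFN-b 4 ng/ml added except unstimulated columns; 1 hr later compounds pinned (12-pt 1:3, top 46 uM final). Incubated 24 hrs, lysed 10 min, luminescence measured.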
# Potency is read from the fitted curve at half-maximal effect; tags tell the direction and shape of the fitted curve.
row,SMILES,Potency
1,COC(=O)c1nc(Cl)c(Cl)nc1N,active: 11.1 µM
2,Cc1cnc(Nc2ccc(OCCN3CCCC3)cc2)nc1Nc1cccc(S(=O)(=O)NC(C)(C)C)c1,"inconclusive: 15.7 µM [cytotoxic, partial curve]"
3,[O-][n+]1ccccc1SSc1cccc[n+]1[O-],active: 0.991 µM
4,COC(=O)Nc1nc2ccc(Sc3ccccc3)cc2[nH]1,"inconclusive: 11.1 µM [cytotoxic, partial curve]"
5,C=CC(=O)Nc1cccc(Sc2nc(Nc3ccc(N4CCN(C)CC4)cc3)ncc2Cl)c1,"inconclusive: 31.3 µM [cytotoxic, single point]"
6,Cc1nc(N)sc1-c1ccnc(Nc2ccc(N3CCOCC3)cc2)n1,"inconclusive: 15.7 µM [cytotoxic, partial curve, poor fit]"
